From the supplement of paper PMC4967469

Columns and labels:
Experiment in all cases: Viability of human cancer cell lines after 72 h of drug (GDSC screen)
[1] = compound: CC(O)(CS(=O)(=O)c1ccc(F)cc1)C(=O)Nc1ccc(C#N)c(C(F)(F)F)c1 [Bicalutamide]; settings: top dose inferred
Method: (§1)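 Human cancer cell lines in 384-well plates, medium with 10% serum, drug for 72 h over a 256-fold dose range (nine 2-fold or five 4-fold steps up to the top dose). Adherent lines were fixed and stained with the nucleic acid dye Syto60, suspension lines read with resazurin; signal relative to control wells, capped at 0 and 100%. One two-parameter sigmoid per drug and line, fitted in a mixed model over all curves with the slope shared within a line.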

[2] = compound: CCNC(=O)c1noc(-c2cc(C(C)C)c(O)cc2O)c1-c1ccc(CN2CCOCC2)cc1 [AUY922]; settings: top dose 0.256 µM; top dose inferred
Method: as §1

[3] = compound: Cc1ccc(Nc2cc(-c3cccc(N4C(=O)c5ccccc5C4=O)c3)ncn2)cc1NS(C)(=O)=O [KIN001-270]; settings: top dose 20 µM; top dose inferred
Method: as §1

[4] = compound: Cc1cn(-c2cc(NC(=O)c3ccc(C)c(Nc4nccc(-c5cccnc5)n4)c3)cc(C(F)(F)F)c2)cn1 [Nilotinib]; settings: top dose 2 µM
Method: as §1

[5] = compound: S=C(NCc1ccc2c(c1)OCO2)N1CCN(c2ncnc3c2oc2ccccc23)CC1 [MP470]; settings: top dose 20 µM; top dose inferred
Method: as §1

[6] = compound: C/C(O)=C(\C#N)C(=O)Nc1cc(Br)ccc1Br [LFM-A13]; settings: top dose 16 µM; top dose inferred
Method: as §1

[7] = compound: CC(C)c1ccccc1Cc1cc(C(=O)Nc2ccc(S(=O)(=O)c3ccccc3C(C)(C)C)cc2)c(O)c(O)c1O [TW-37]; settings: top dose 5 µM
Method: as §1

[8] = compound: O=S(=O)(c1ccccc1)N(CC(F)(F)F)c1ccc(C(O)(C(F)(F)F)C(F)(F)F)cc1 [T0901317]; settings: top dose 10.24 µM; top dose inferred
Method: as §1

[9] = top dose 1.024 µM, screen: GDSC drug entry 150
[10] = top dose 10 µM, screen: GDSC drug entry 1502

Cell Line | AUC [1, 9] | IC50 [1, 9] [nM] | AUC [1, 10] | IC50 [1, 10] [nM] | AUC [2] | IC50 [2] [nM] | AUC [3] | IC50 [3] [nM] | AUC [4] | IC50 [4] [nM] | AUC [5] | IC50 [5] [nM] | AUC [6] | IC50 [6] [nM] | AUC [7] | IC50 [7] [nM] | AUC [8] | IC50 [8] [nM]
HT-29 (large intestine, adherent) | 0.988 | > 1020 | 0.985 | > 10000 | 0.67 | 47.4 | 0.982 | > 20000 | 0.984 | > 2000 | 0.948 | > 20000 | 0.984 | > 16000 | 0.647 | 796 | 0.984 | > 10200
HT-1080 (fibrosarcoma, adherent) | 0.989 | > 1020 | 0.986 | > 10000 | 0.524 | 18.5 | 0.985 | > 20000 | 0.922 | > 2000 | 0.974 | > 20000 | 0.983 | > 16000 | 0.346 | 123 | 0.987 | > 10200
HuH-7 (liver, adherent) | 0.987 | > 1020 | 0.986 | > 10000 | 0.684 | 52.4 | 0.981 | > 20000 | 0.978 | > 2000 | 0.439 | 852 | 0.979 | > 16000 | 0.35 | 120 |  | 
HuO-3N1 (osteosarcoma, adherent) | 0.98 | > 1020 | 0.963 | > 10000 | 0.906 | > 256 | 0.983 | > 20000 | 0.963 | > 2000 | 0.977 | > 20000 | 0.908 | > 16000 | 0.753 | 2160 | 0.982 | > 10200
HuP-T4 (pancreas, adherent) | 0.983 | > 1020 |  |  | 0.593 | 29.2 | 0.971 | > 20000 | 0.984 | > 2000 | 0.969 | > 20000 | 0.94 | > 16000 | 0.587 | 551 | 0.978 | > 10200
KMRC-20 (kidney, adherent) |  |  | 0.984 | > 10000 | 0.983 | > 256 | 0.981 | > 20000 | 0.98 | > 2000 | 0.959 | > 20000 | 0.952 | > 16000 | 0.593 | 566 | 0.982 | > 10200
KP-1N (pancreas, adherent) | 0.986 | > 1020 | 0.971 | > 10000 | 0.483 | 14.4 |  |  | 0.969 | > 2000 |  |  | 0.979 | > 16000 | 0.394 | 158 |  | 
KP-2 (pancreas, adherent) | 0.986 | > 1020 | 0.942 | > 10000 | 0.72 | 71.2 | 0.984 | > 20000 | 0.985 | > 2000 | 0.983 | > 20000 | 0.986 | > 16000 | 0.729 | 1490 | 0.985 | > 10200
KP-3 (pancreas, adherent) | 0.981 | > 1020 | 0.967 | > 10000 | 0.653 | 46.4 | 0.976 | > 20000 | 0.984 | > 2000 | 0.965 | > 20000 | 0.972 | > 16000 | 0.495 | 301 | 0.984 | > 10200
MDA-MB-361 (breast, adherent) | 0.987 | > 1020 | 0.985 | > 10000 | 0.569 | 24.6 | 0.984 | > 20000 | 0.976 | > 2000 | 0.913 | > 20000 | 0.978 | > 16000 | 0.5 | 312 | 0.974 | > 10200
MDA-MB-453 (breast, adherent) |  |  |  |  | 0.845 | 215 | 0.962 | > 20000 | 0.986 | > 2000 | 0.526 | 1490 | 0.966 | > 16000 |  |  | 0.95 | > 10200
SCC90 (head and neck, adherent) | 0.971 | > 1020 | 0.978 | > 10000 | 0.692 | 70.2 |  |  | 0.981 | > 2000 |  |  | 0.967 | > 16000 | 0.575 | 547 |  | 
SNU-407 (large intestine, adherent) |  |  | 0.969 | > 10000 |  |  | 0.961 | > 20000 | 0.959 | > 2000 | 0.659 | 3740 |  |  | 0.572 | 508 | 0.978 | > 10200
SNU-C5 (large intestine, adherent) |  |  | 0.984 | > 10000 |  |  | 0.983 | > 20000 | 0.975 | > 2000 | 0.932 | > 20000 |  |  | 0.725 | 1460 | 0.973 | > 10200
TE-4 (oesophagus, adherent) |  |  | 0.968 | > 10000 |  |  | 0.976 | > 20000 | 0.985 | > 2000 | 0.923 | > 20000 |  |  | 0.486 | 286 | 0.982 | > 10200
YH-13 (glioma, adherent) |  |  | 0.985 | > 10000 |  |  | 0.973 | > 20000 | 0.974 | > 2000 | 0.962 | > 20000 |  |  | 0.388 | 151 | 0.986 | > 10200

By IC50 is meant the dose at which the fit gives 50% viability; a fit beyond the top or the lowest dose is shown as a bound at that dose. The AUC spans the tested range (256-fold, ending at the top dose) of the same fit; values near 1 show little effect. For part of these data: Where the top dose is marked as inferred, it is not printed in the source and was worked back from the curve model. For part of these data: Drugs with an entry number were screened twice under separate entries, and the two screens often disagree.
